# Assay results as given in patent US10765664B2, “Treatment of infectious diseases” (CHILDREN'S MEDICAL CENTER CORPORATION, priority 2015, dated 2020).
# Assays:
# A549 cells = experiment: Stress granule formation in A549 cells (anti-G3BP1 staining); settings: 40 μM NTZ, 4 hrs
# Method: (§1) FIGS. 18A-18C NTZ treatment leads to stress granule formation. (FIG. 18A) NTZ induces stress granule formation in A549 cells. A549 cells were mock-treated or treated with sodium arsenite (0.5 μM) for 1 hr or NTZ (40 μM) for 4 hrs. Stress granules were detected after fixation and permeabilization with Rb anti-G3BP1 and DyLight-594-anti-Rb IgG antibodies. (FIG. 18B) GADD34 transcription is induced by NTZ in A549 cells. A549 cells were treated with NTZ (40 μM) for the indicated lengths of time. RNA was then extracted and after oligoDT-based cDNA synthesis, GADD34 mRNA levels were measured by qPCR and normalized to cyclophilin B mRNA levels. Mean and SD of 3 independent experiments; *=p<0.05. (FIG. 18C) NTZ treatment of THP-1 cells results in increased cellular acidification. THP-1 cells were treated for 24 hrs with the indicated concentrations of NTZ (or IFN-beta as a positive control) and then stained with Lysotracker Red and analyzed by flow cytometry.
# [1] = tested on: TNF, IL-1β, IL-2, IL-4, IL-6, IL-8, IL-10, and IFN-γ; experiment: Cytokine levels in human PBMC supernatants by Luminex assay; settings: 72 hrs
# Method: FIG. 4 is a set of graphs showing that human PBMC were treated with NTZ at the indicated concentrations for 72 hrs and cellular supernatants were analyzed by Luminex assay to quantitate cytokine levels. […] Means of two donors and SEM are shown.
# IFITM1 = assay type: cell-based; settings: human macrophages; data not shown
# GADD34 = GADD34 mRNA by qPCR in A549 cells; settings: 40 μM NTZ
# Method: as §1
# SAMHD1 = settings: MDM, 3 or 24 hours
# Cryptosporidium parvum = settings: gerbils; cited from earlier work
Structure (SMILES),stress granule formation (A549 cells),"TNF, IL-2, IL-4, IL-8, IL-10, and IFN-γ levels [1]",expression and release of IL-6 [1],expression and release of IL-β [1],IFITM1 gene expression (IFITM1),GADD34 mRNA expression (GADD34),SAMHD1 gene expression (SAMHD1),activity against Cryptosporidium parvum infection compared to NTZ (Cryptosporidium parvum)
"CC(=O)Oc1ccccc1C(=O)Nc1ncc([N+](=O)[O-])s1 [NTZ, [2-[(5-nitro-1,3-thiazol-2-yl)carbamoyl]phenyl] ethanoate]",formation of stress granules was detected,not affected,induces,induces,induces,significant induction,enhances,–
CC(=O)Oc1ccccc1C(=O)Nc1ncc(Cl)s1 [RM-5038],–,–,–,–,–,–,–,improved activity
